PubChem BioAssay AID485341 (National Center for Advancing Translational Sciences (NCATS), 2010)
The campaign covered roughly 330,000 compounds. About 1,700 (0.52%) were called active. Inconclusive results, whose numbers are uncertain, are shown with a selection of clear calls. Calls come from the whole dose curve; as a rule, active = well fitted inhibition curve with a large enough effect; inconclusive = small, poorly fitted or top-dose-only effect; inactive = no such curve, though single readings can be large or run the other way. Where the call is inconclusive, the potency comes from a doubtful curve fit.

Target: Beta-lactamase (Escherichia coli (strain K12)) (UniProt P00811)
UniProt P00811, sequence (P00811 whole entry, looked up): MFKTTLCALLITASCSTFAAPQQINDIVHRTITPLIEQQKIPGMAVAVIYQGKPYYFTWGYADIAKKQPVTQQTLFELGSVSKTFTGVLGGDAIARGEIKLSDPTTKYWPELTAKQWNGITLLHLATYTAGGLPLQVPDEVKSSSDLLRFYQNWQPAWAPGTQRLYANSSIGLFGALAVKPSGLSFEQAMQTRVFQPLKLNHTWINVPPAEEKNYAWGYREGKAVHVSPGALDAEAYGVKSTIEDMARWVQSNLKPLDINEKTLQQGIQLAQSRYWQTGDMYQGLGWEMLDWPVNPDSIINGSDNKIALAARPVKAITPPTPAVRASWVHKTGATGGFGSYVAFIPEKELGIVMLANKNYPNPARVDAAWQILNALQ
Experiment: qHTS Inhibitors of AmpC Beta-Lactamase (assay without detergent); note: nearly all actives have a fitted effect of over 20% in size;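 for activity change, negative = inhibition: plate controls were no compound for no effect and no enzyme for full effect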
Details: AmpC nitrocefin hydrolysis, absorbance 480 nm, 0.0001% Triton; activity change, negative = inhibition: at 57.1 µM (top of the series) unless noted
Summary of the method: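 20 mM phosphate pH 7.0 + 0.01% (detergent screen) or 0.0001% Triton X-100; 5.3 nM AmpC reagent; cpd preinc 15 min RT; nitrocefin (800 uM stock) to start; A480 q20 s × 4 min; Activity was normalised to no-enzyme and no-compound control wells.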
Potency is the fitted concentration of half-maximal effect; tags give direction and shape of the fitted curve.

Compound | Potency | activity change, negative = inhibition
O=c1nc(N2CCCCC2)nc2n1CCO2 | inconclusive: 1 µM [inhibitor, partial curve, poor fit] | 
COc1cc(COc2ccc3c(C)c(Cc4ccccc4)c(=O)oc3c2)cc(OC)c1OC |  | inactive: -27.4%
O=C(OCC(=O)c1ccc([N+](=O)[O-])cc1)/C(=C\c1ccc(Cl)cc1)NC(=O)c1ccccc1 | inconclusive: 20 µM [inhibitor, partial curve] | 
O=C(/C=C/c1ccco1)N1CCCC(c2ccccc2)C1 (stereo unspecified) |  | inactive: -17.4%
Cc1sc2nc(SCc3nc(-c4ccccc4)no3)n(-c3ccccc3)c(=O)c2c1C | inconclusive: 3.55 µM [inhibitor, single point] | 
CC1CCCN(c2nc3ccccc3nc2C(C#N)S(=O)(=O)c2ccccc2)C1 (stereo unspecified) | inconclusive: 2.82 µM [inhibitor, full curve, poor fit] | 
O=[N+]([O-])c1ccc(C(=S)N2CCN(Cc3ccccc3)CC2)cc1 | inconclusive: 0.251 µM [inhibitor, full curve, poor fit] | 
O=C(O)c1ccc2c(c1)N(Cc1ccccc1F)C(=O)c1ccccc1S2=O (stereo unspecified) | inconclusive: 0.631 µM [inhibitor, full curve, poor fit] | 
CC(/C=N/NC(=O)CSc1nnc(SCc2ccccc2)s1)=C\c1ccco1 | inconclusive: 17.8 µM [inhibitor, partial curve] | 
Cc1cccc2sc(NNC(=O)c3ccc(S(=O)(=O)N4CCc5ccccc5C4)cc3)nc12 | active: 14.1 µM | 
O=C(Nc1nc2ccccc2[nH]1)c1ccc(S(=O)(=O)N2CCOCC2)cc1 |  | inactive: -23.7%
O=c1oc2ccccc2c2c1C1O[C@](c3ccsc3)(Cc3ccccc31)O2 | active: 4.47 µM | 
Nc1c(C(=O)Nc2ccccc2)c2nc3ccccc3nc2n1-c1ccc(O)cc1 |  | inactive: 6.47%
Cc1ccc(C(=O)NC(=S)Nc2cccc(NC(=O)c3ccccc3Cl)c2)cc1[N+](=O)[O-] | inconclusive: 20 µM [inhibitor, partial curve] | 
CC(=O)c1cccc(Nc2ncnc3ccc(Br)cc23)c1 | inconclusive: 22.4 µM [inhibitor, single point] | 
COCCn1c(SCC(=O)N(C)c2c(N)n(Cc3ccccc3)c(=O)[nH]c2=O)nnc1-c1cccc(C)c1 | inconclusive: 39.8 µM [inhibitor, single point] | 
CCn1c(C(=O)N2CCC(C(=O)N3CCN(c4ccccn4)CC3)CC2)cc2sccc21 | inconclusive: 0.316 µM [inhibitor, full curve, poor fit] | 
Cc1cc(C(=O)N2CC(C)CC(C)C2)n(-c2ccccc2)n1 (stereo unspecified) | active: 8.91 µM | 
COc1ccc(N=c2cc(-c3ccc(OC)cc3)oc3ccccc23)cc1 |  | inactive: -26%
Cc1ccc(NC(=O)Cn2c(O)c(N=NS(=O)(=O)c3ccc(C)cc3)c3ccccc32)cc1 | inconclusive: 35.5 µM [inhibitor, single point] | 
COc1ccc(/C=C2\SC(=S)N(CC(=O)OCC(=O)Nc3cc(Cl)cc(Cl)c3)C2=O)cc1 | inconclusive: 39.8 µM [inhibitor, single point] | 
O=S(=O)(Nc1ccc(O)c2ccccc12)c1ccc(Br)cc1 | active: 11.2 µM | 
CSCCC(NS(=O)(=O)c1ccc(Cl)cc1)C(=O)OCC(=O)c1c(C)[nH]c2ccccc12 (stereo unspecified) | inconclusive: 6.31 µM [inhibitor, single point] | 
N#Cc1ccc(NC(=O)Nc2ccc(Cl)cc2)cc1 | inconclusive: 6.31 µM [inhibitor, full curve, poor fit] | 

Compound | Potency | activity change, negative = inhibition
CCn1nnnc1SCC(=O)NNC(=O)C1CCCCC1 | inconclusive: 6.31 µM [inhibitor, single point] | 
CCOc1ccc(NC(=O)c2ccc(NC(=O)CN3C(=O)C(=O)N(CC(C)C)C3=O)cc2)cc1 | inconclusive: 39.8 µM [inhibitor, single point] | 
C/C(=N\N=C(N)N)c1ccc(Cl)c(Cl)c1 |  | inactive: -31.1%
Oc1ccc(Br)cc1CNc1cnc2ccccc2c1 | active: 17.8 µM | 
c1ccc2c(c1)CC/C2=N/Nc1nc2ccccc2[nH]1 |  | inactive: -28.8% [at 11.4 µM]
O=C(COC(=O)c1cc(NS(=O)(=O)c2cccs2)ccc1O)Nc1ccccc1 | inconclusive: 7.08 µM [inhibitor, full curve, poor fit] | 
CC(=O)NC12CC3CC(C1)CC(C(=O)N1CCN(S(=O)(=O)c4cccc(C(F)(F)F)c4)CC1)(C3)C2 |  | inactive: 211%
Cc1ccc(C2CC(c3ccc(C)cc3)n3nc(N)nc3N2)cc1 (stereo unspecified) | active: 44.7 µM | 
Cc1ccccc1C(=O)NC1CCN(CC(=O)Nc2ccc(N(C)C)cc2)CC1 |  | inactive: -0.559%
O=C(Cn1ncc2c3ccccc3n(Cc3ccccc3)c2c1=O)N1CCN(c2ccccn2)CC1 |  | inactive: 9.67%
CC(C)C(=O)Nc1ccc(S(=O)(=O)Nc2nccc(/C=C/c3ccccc3)n2)cc1 | inconclusive: 25.1 µM [inhibitor, single point] | 
Cc1ccc2nc3sc(C(=O)NCc4ccco4)c(N)c3cc2c1 | inconclusive: 35.5 µM [inhibitor, single point] | 
CC[C@@H](C)[C@H](NC(=O)OC(C)(C)C)c1nnc(S(=O)(=O)Cc2cc(C)ccc2C)o1 | inconclusive: 17.8 µM [inhibitor, partial curve] | 
O=C(OCCOc1cccc(Cl)c1)c1cc(S(=O)(=O)N2CCCCC2)ccc1N1CCOCC1 | inconclusive: 39.8 µM [inhibitor, single point] | 
CCNS(=O)(=O)c1ccc(CCC(=O)NCc2ccccn2)cc1 |  | inactive: -2.16%
CCCCOc1ccc(C(=O)Nc2ccc(N3CCN(C(=O)C(C)C)CC3)cc2)cc1 |  | inactive: -14.7%
CCOC(=O)C(=CNc1ccccc1Cl)C(=O)OCC |  | inactive: 7.26%
O=C(Nc1ccc(F)cc1F)c1cncc(Br)c1 |  | inactive: -15.6%
Cc1cc(NC(=O)COc2cccc(C)c2C)no1 | inconclusive: 0.631 µM [inhibitor, full curve, poor fit] | 
Cc1ccc(S(=O)(=O)N2CCCCC2)cc1NC(=O)COC(=O)c1ccc(O)cc1 |  | inactive: -22.6% [at 11.4 µM]
N#CC1=C(N)Oc2cc3ccccc3cc2C1c1cccs1 (stereo unspecified) | inconclusive: 1.26 µM [inhibitor, full curve, poor fit] | 
CN(c1ccccc1)S(=O)(=O)c1cccc(C(=O)NNC(=O)c2ccncc2)c1 | inconclusive: 31.6 µM [inhibitor, single point] | 
O=[N+]([O-])c1ccc(C(O)CN2CCN(C/C=C/c3ccccc3)CC2)cc1 (stereo unspecified) |  | inactive: 14.8%
Cc1ccc(S(=O)(=O)N2CCN(C(=O)COc3ccc(Br)cc3)CC2)cc1 |  | inactive: -12.7%

Compound | Potency | activity change, negative = inhibition
Cc1[nH]c2ccccc2c1C(=O)C(C)OC(=O)c1ccccc1NCCO (stereo unspecified) | active: 28.2 µM | 
COc1ccc(CNC(=O)c2csc(Cc3ccccc3)n2)cc1 | inconclusive: 0.708 µM [inhibitor, partial curve, poor fit] | 
CCn1c(O)c(/C=C2\C=NN=C2c2ccccc2)sc1=S | inconclusive: 39.8 µM [inhibitor, single point] | 
CCN(CC)S(=O)(=O)c1cc(NC(=O)COC(=O)c2ccc(NC(=O)CC#N)cc2)ccc1C | active: 7.94 µM | 
N#Cc1nc(-c2cccs2)oc1NCc1ccccc1 |  | inactive: -18.9%
CCOC(=O)c1c(C)[nH]c(C2=NNC(=Nc3ccccc3OC)SC2)c1C | inconclusive: 3.16 µM [inhibitor, partial curve] | 
Cn1c(=O)c(Oc2cc(Cl)cc(Cl)c2)nc2ccccc21 | active: 0.398 µM | 
CCCCCc1cc(=O)oc2c(C(CCN3CCCC(C)C3)c3ccc(N(C)C)cc3)c(OC)cc(OC)c12 (stereo unspecified) |  | inactive: 122%
CC(=O)Nc1ccc(NC(=O)C2CCN(c3ccc(C(F)(F)F)cn3)CC2)cc1 |  | inactive: -2.33%
O=C(/C=C/c1cccc([N+](=O)[O-])c1)Nc1cccc(NC(=O)c2ccco2)c1 | active: 3.16 µM | 
COc1ccccc1S(=O)Cc1ccc(C(=O)NCCc2ccc(Cl)cc2)o1 (stereo unspecified) |  | inactive: 44.2%
Cc1ccc(NC2=C/C(=N\S(=O)(=O)c3cccs3)c3ccccc3C2=O)c(C)c1 | inconclusive: 1.78 µM [inhibitor, full curve, poor fit] | 
COc1ccc(C)c2sc(NC(=O)C3=COCCO3)nc12 | active: 39.8 µM | 
COc1cc(C)ccc1OCCOc1cc(C)ccc1Cl | inconclusive: 44.7 µM [inhibitor, partial curve, poor fit] | 
COc1ccc(NC(=O)Cn2nnc(C(=O)NCc3cccs3)c2N)cc1 | inconclusive: 39.8 µM [inhibitor, single point] | 
COc1cccc(NC(=O)CSc2nnc(Cc3ccc(C)cc3)c(=O)n2N)c1 | inconclusive: 7.94 µM [inhibitor, partial curve] | 
CCCCC(CCC(=O)Nc1ccccc1C(=O)OCC)C(=O)O (stereo unspecified) | inconclusive: 4.47 µM [inhibitor, single point] | 
NC(=O)CC(NC(=O)c1ccc(Br)cc1)c1ccc(NC2CCCCCC2)c([N+](=O)[O-])c1 (stereo unspecified) |  | inactive: -37.7%
Cc1ccc(OCC(=O)c2ccc(Cl)s2)c([N+](=O)[O-])n1 | inconclusive: 14.1 µM [inhibitor, partial curve] | 
COc1cccc(CNC(=O)CN2CCC(c3nc4ccc(C)cc4[nH]3)CC2)c1 |  | inactive: 20.1%
COCC(C)NC(=S)NC(=O)c1cc(S(=O)(=O)N2CCOCC2)ccc1C (stereo unspecified) |  | inactive: -4.07%
CN(C)CCCN(C(=O)COc1ccc(Cl)cc1)c1nc2cc3c(cc2s1)OCCO3 | inconclusive: 39.8 µM [inhibitor, single point] | 
COC(=O)CC(NS(=O)(=O)c1cccs1)c1ccccc1Cl (stereo unspecified) | inconclusive: 0.126 µM [inhibitor, full curve, poor fit] | 
